Residue numbers refer to the chain shown, from its start. This is one part of the list.

To fix the notation:
T1: UNK ZnF1-3 (human, UniProt Q9C0B0 31-174)
T1 sequence: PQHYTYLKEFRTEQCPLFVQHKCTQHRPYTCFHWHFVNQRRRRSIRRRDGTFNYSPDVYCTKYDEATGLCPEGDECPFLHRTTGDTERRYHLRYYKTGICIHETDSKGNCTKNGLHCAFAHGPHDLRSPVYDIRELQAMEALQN

B1: chr2:42472670:42472671:+_ENSG00000143924_ENST00000318522|hu_hu|motif|central (ssRNA)
RNA: GGGAGUUCUACAGUCCGACGAUCCGUGACUCAAGAGCUGACAGGCGAUCUUGAACAUCAGAAGUACUUGCAGCAGAAAUACGGUCAUCGAGACUGCCGGCGAAACCGUCCAUCUUGCGGGGAAAGCGCCGGGCUCCGGGCUUACAACAGAGGAUUGAGCAUCA
B2: chr2:179988524:179988525:-_ENSG00000187231_ENST00000428443|hu_mus|motif|central (ssRNA)
RNA: GGGAGUUCUACAGUCCGACGAUCUAAAGUUUGCUGAAUCGAUGCUCCAUCAGCUGGUGCUACAUCUACGCACAACAUCCCGGAUAAGCCGUCCAACUGCUGAGACAAAUCUUGGGCCACACCAUGAAAUUCCAAAGCUGCCUGCAACAGAGGAUUGAGCAUCA
B3: chr9:37780755:37780756:-_ENSG00000107371_ENST00000396521|hu_hu|FALSE|FALSE (ssRNA)
RNA: GGGAGUUCUACAGUCCGACGAUCGCCAAUCUGGAGAAGAUCUGUUUUCUUUGAUCUGACGUCAUGUGUUCACAAGCUUCUAAAAUGUUUGCCAAAAUUAAAGUCUGCUGGAUGGUUUUUGCCUUAACCCAUAUUCUUCCAUUCCAACAGAGGAUUGAGCAUCA
B4: chr2:216981417:216981418:+_ENSG00000079246_ENST00000392132|hu_hu|hu_hu_hu_mus_True|18_38 (ssRNA)
RNA: GGGAGUUCUACAGUCCGACGAUCCUGAUACUGGUCCUUGCCAGCAAGGGCAUUAUCAGUGCCAUCUGUGCCAUAGAGGACUAACGCAAUCUCAUCUUUGUUCUCAGAAAAUACCUGUCGCUGUACAAACAUAGUCAUCACUUUCAACAGAGGAUUGAGCAUCA
B5: chr10:33214929:33214930:-_ENSG00000150093_ENST00000302278|hu_hu|hu_hu_hu_mus_True|8_8 (ssRNA)
RNA: GGGAGUUCUACAGUCCGACGAUCAACAAGUUCAUUGAAAAACUCUCCUCUGUCAGUAAGACUAAGCACAUUUUUGUAGCUAAAUGGGCUGGUGCAGUUUUGUUCACUUGUACAAGGAUUUCUUAGCUUAGCUGGUGUUGUGCUCAACAGAGGAUUGAGCAUCA
B6: chr14:78183846:78183847:+_ENSG00000119705_ENST00000557342|hu_hu|hu_hu_hu_mus_False|38_68 (ssRNA)
RNA: GGGAGUUCUACAGUCCGACGAUCUCUCAGAAAUCUUUCUUCAUCAGAUGUUUGAGCUCCGUGCAAAAGUUUUGGCCUUUGAGCUUGAACGUGGAUCUUUACUCCAUAAAGCACUGUCAGAAAAGGUAAUUUUUUUUUUAAAGACAACAGAGGAUUGAGCAUCA
B7: chr8:74529624:74529625:-_ENSG00000040341_ENST00000355780|hu_hu|FALSE|FALSE (ssRNA)
RNA: GGGAGUUCUACAGUCCGACGAUCGAGGGCUUUCAUUGCAGCAUUGUGUCUAGCAGCUUGUCGAGUCUUUCCUUCCCCAAAAAAUUCAUUAUUUCCUACAGUGAGCUGAACAUAAAAGAUCUUAGGCACUGGGCAAUGAUACCUCAACAGAGGAUUGAGCAUCA
B8: chr5:145543945:145543946:-_ENSG00000133706_ENST00000545646|hu_hu|hu_hu_hu_mus_True|1_1 (ssRNA)
RNA: GGGAGUUCUACAGUCCGACGAUCCUGAACGGCCAGUGGUGGGAAAUAAUCAAGCCAGUGCUCUGCUUCAGAAAACUUCACUAUGUCGUCAUCAGAGAGCCCAAGGGAUUUCAUAAUGUCCCACUGGUACUUAGAAGAUCCAGCCAACAGAGGAUUGAGCAUCA
B9: chr22:42024162:42024163:+_ENSG00000196419_ENST00000405878|hu_mus|motif|central (ssRNA)
RNA: GGGAGUUCUACAGUCCGACGAUCUUCAUCUUCACCCUGAGAUUCGAACAUAGCCCUGGAGGCAUCAACCAGAAAAAUCAAGCGGUCUCUUCCUGAAUAUUUAUAUUCUCCACCUGUGUCGGGGCUCUCCUCCUCCUCUUCCUCCAACAGAGGAUUGAGCAUCA
B10: 214822017_214822137_8058_CDS_ENSG00000117724_ENST00000366955|human|control|control (ssRNA)
RNA: GGGAGUUCUACAGUCCGACGAUCCAACUCUCCAGCUAGCCUAUUUUUCUCUCCACUGAGUUCUUCUUGCAGCUCUGCUGUUUUCUGUGCCAUCUCAUGCAUUUCCCUCUGCAGCUCAGUUUCCUUUGCAGUCAUUUUGUUUACCAACAGAGGAUUGAGCAUCA
B11: chr2:73747422:73747423:-_ENSMUSG00000018770_ENSMUST00000018914|mus_mus|motif|central (ssRNA)
RNA: GGGAGUUCUACAGUCCGACGAUCCAGCUGACACACACCAUUCUGGGCCCCAUUAAAAACUGUAGAGCCCUCUCCAGUCCGGGUCUCUGGCCGAGAUAACACUGAUGCAGAAAUUGGUCUAUAUGCAACUCUGGAUCCAGCUCGCAACAGAGGAUUGAGCAUCA
B12: chr17:4848066:4848067:+_ENSG00000108523_ENST00000575111|hu_mus|FALSE|FALSE (ssRNA)
RNA: GGGAGUUCUACAGUCCGACGAUCAGUUUCUUCUUCCUGCUCCUCAUCGCCAGGACCCCGAUGUACAGGCUGUUUGCAGAUGGGGCAGGUCUUGCGGGUCUGAGUGAGCCAGGGGUCCACACAGCGACUGUGAUAAGCAUGAGCCAACAGAGGAUUGAGCAUCA
B13: chr11:77336104:77336105:-_ENSG00000074201_ENST00000525064|hu_mus|hu_hu_hu_mus_False|8_88 (ssRNA)
RNA: GGGAGUUCUACAGUCCGACGAUCCUCACACAUUGCUGUGAACAUCGCCUCCAACGCUGACUUAUCACUGGGCACAAAUCGAAAUUCAGAAAUGGGUUCAACAUCAUCAUUGUCUUCCUCAUCUUCAUCAUCAGCAAGUUCUUUCAACAGAGGAUUGAGCAUCA
B14: chr7:54823571:54823572:-_ENSG00000132432_ENST00000352861|hu_hu|motif|central (ssRNA)
RNA: GGGAGUUCUACAGUCCGACGAUCUCCCAUUAUAGCAAAUCCUAUUGCUGUUGCCAUGGCAAUCUUCUGGAAUUCUUUUCGGUCAGGUUUAGUGCAUCUUUUAACCAGCCGAAUGGAGUCCUUUACAAACUGCCGACUUGGCUCCAACAGAGGAUUGAGCAUCA
B15: chr2:65860617:65860618:+_ENSMUSG00000044647_ENSMUST00000122912|mus_mus|FALSE|FALSE (ssRNA)
RNA: GGGAGUUCUACAGUCCGACGAUCGAGCUGGCUAGGAGUUCCUGGGAUGUGACUAUCUAUUUGGUAGUAGAGAGUUGAAGAGCUAGCGUAAAAUGAAGCAUUUUUUGUGUGGCUUUCAUGAACUGCGGUGCCAUCAGAGUAACACAACAGAGGAUUGAGCAUCA
B16: chr7:65705475:65705476:+_ENSG00000169902_ENST00000304842|hu_hu|hu_hu_hu_mus_True|98_108 (ssRNA)
RNA: GGGAGUUCUACAGUCCGACGAUCUCUAUCCGGUGAUGGCAUUCCAUGGCAUGCUGGCCCAGGUAAAACACGGUCACAGAACUAAUCACCAGACACGCCAAGAGUAAGUUCUGCUUCAGCUUCCCAACCAUCUUGAUGUGGUUACAACAGAGGAUUGAGCAUCA
B17: chr1:202705475:202705476:-_ENSG00000117139_ENST00000367264|hu_mus|FALSE|FALSE (ssRNA)
RNA: GGGAGUUCUACAGUCCGACGAUCCAAUCUUGGUAAAGAAUUGAGAUGUACUGGGAUAGAUCGGCCUCUUGCAACAAGUUCAAUGAGUGUCUCUAACACUGGCACACGUCCUCCUGCCUGCAAUGCAUCCACAUCCUGAACCCACAACAGAGGAUUGAGCAUCA
B18: chr17:17165348:17165349:-_ENSG00000141030_ENST00000268717|hu_hu|FALSE|FALSE (ssRNA)
RNA: GGGAGUUCUACAGUCCGACGAUCAAUUUGAGAUGUAUAUUUUGGUAGCUGUUGUACUUUGCCAAGUAAUAUCAAAGACACUAAAAUAUACUUUUUAUAUGAUUCCAACAUGAUAUGACUGACCGCCAUGGCAGGAGUAGUUAUCAACAGAGGAUUGAGCAUCA
B19: chr2:216981417:216981418:+_ENSG00000079246_ENST00000392132|hu_hu|hu_hu_hu_mus_True|28_28 (ssRNA)
RNA: B4 RNA with U100C, A105C, A107C, U111C, C120U, U123G
B20: chr2:114709107:114709108:+_ENSG00000115091_ENST00000536059|hu_hu|FALSE|FALSE (ssRNA)
RNA: GGGAGUUCUACAGUCCGACGAUCAGAGAGGACAAUAUUCUUGUAGAGAGGACGUCUGACAUCAAUAGGACAAUUCUGAAUUACUUCAUCUACAACUUCUGAGAUAGGUUGUGUAAAGUCUGGAUUAGCAAACUCUGGAUGAAACAACAGAGGAUUGAGCAUCA
B21: chr10:85910540:85910541:+_ENSG00000165678_ENST00000372134|perfect_dup|FALSE|FALSE (ssRNA)
RNA: GGGAGUUCUACAGUCCGACGAUCUUCUGCACGUUUGAUUACUUUCUGAGUAUCAUACAGAAGGAACAUGCUGAAAAGAACUAAUCCACCAUACAUUGCCACUGAGUACAGAGUGGCACCAGCCACAGAGGUAGGGGGAAGAAACAACAGAGGAUUGAGCAUCA
B22: chrX:69798090:69798091:-_ENSMUSG00000031343_ENSMUST00000055966|mus_mus|mus_mus_mus_hu_False|58_78 (ssRNA)
RNA: GGGAGUUCUACAGUCCGACGAUCAAGUCCCCGGGUUCUUGUCGUCUUGAUUCCCCUUGGCUAGUGGUUCCAGGGAGAAUACUAAUCAGGAAAAGAAUCCCAAGGCUGGUCAUGUAACAGUGACUUGUUUGUGUGAUUAUCAUCCAACAGAGGAUUGAGCAUCA

The experiment has as its target T1, UNK ZnF1-3. Description: nsRBNS (natural sequence RNA bind-n-seq); RBNS binding buffer (assumed for nsRBNS): 25 mM Tris pH 7.5, 150 mM KCl, 3 mM MgCl2, 0.01% Triton X-100, 500 ug/ml BSA, 20 U/ml SUPERase-In, 4 C; UNK is unkempt and MSI1 is Musashi-1; names of the RNAs are library labels; protein concentration not given here; high values mean tight binding.
As for B1, the binding signal was determined as 1.37 enrichment R.

As to B2, the binding signal worked out at 1.12 enrichment R. The molecule B3 displayed a binding signal of 1.08 enrichment R.

Turning to B4, the binding signal stood at 0.783 enrichment R.

As to B5, the binding signal came out at 0.941 enrichment R. Turning to B6, the binding signal was found to be 1.14 enrichment R. Under B7 stands 1.49 enrichment R; under B8, 1.33 enrichment R; under B9, 1.55 enrichment R. Consider B10, for which the binding signal was 0.348 enrichment R.

B11 registered a binding signal of 1.43 enrichment R. Molecule B12 showed a binding signal of 1.02 enrichment R. Under B13 stands 1.17 enrichment R; under B14, 0.604 enrichment R; under B15, 0.988 enrichment R. B16 displayed a binding signal of 0.461 enrichment R. The molecule B17 gave a binding signal of 1.11 enrichment R. Regarding B18, the binding signal turned out to be 0.577 enrichment R.

B19: the binding signal was determined as 0.742 enrichment R. In the case of B20, the binding signal is 0.985 enrichment R. In turn, B21 yielded a binding signal of 1.38 enrichment R. Under B22 stands 0.579 enrichment R.

(Values after paper PMC12136788.)
